Our source for the binding signal values is paper PMC9911399, “Two distinct binding modes provide the RNA-binding protein RbFox with extraordinary sequence specificity”.

The chains are these.
T1: RBFOX1 RRM RbFoxmut (Fox-RRM*) (Homo sapiens, UniProt Q9NWB1 109-208, R118D;E147R;N151S;E152T)
T1 sequence: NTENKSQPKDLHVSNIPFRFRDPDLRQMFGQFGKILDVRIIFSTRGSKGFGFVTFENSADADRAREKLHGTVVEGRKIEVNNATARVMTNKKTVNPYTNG

B1: CAGUGUU (DNA:RNA)
RNA: GGGAGACCGGAAUUCAGAUUGUCCCAGUGUUUUAAAUCCCGUCGUAGCCACCA
DNA 1: CAATCTGAATTCCGGTCTCCC
DNA 2: TGGTGGCTACGACGGGATT
B2: ACUUCAC (DNA:RNA)
RNA: B1 RNA with C25A, A26C, G27U, G29C, U30A, U31C
DNA 1: CAATCTGAATTCCGGTCTCCC
DNA 2: TGGTGGCTACGACGGGATT
B3: AUAGAUA (DNA:RNA)
RNA: B1 RNA with C25A, A26U, G27A, U28G, G29A, U31A
DNA 1: CAATCTGAATTCCGGTCTCCC
DNA 2: TGGTGGCTACGACGGGATT
B4: GGAUUUA (DNA:RNA)
RNA: B1 RNA with C25G, A26G, G27A, G29U, U31A
DNA 1: CAATCTGAATTCCGGTCTCCC
DNA 2: TGGTGGCTACGACGGGATT
B5: CCUUCAG (DNA:RNA)
RNA: B1 RNA with A26C, G27U, G29C, U30A, U31G
DNA 1: CAATCTGAATTCCGGTCTCCC
DNA 2: TGGTGGCTACGACGGGATT
B6: ACGGGCU (DNA:RNA)
RNA: B1 RNA with C25A, A26C, U28G, U30C
DNA 1: CAATCTGAATTCCGGTCTCCC
DNA 2: TGGTGGCTACGACGGGATT
B7: CGAGCCC (DNA:RNA)
RNA: B1 RNA with A26G, G27A, U28G, G29C, U30C, U31C
DNA 1: CAATCTGAATTCCGGTCTCCC
DNA 2: TGGTGGCTACGACGGGATT
B8: ACUGGGA (DNA:RNA)
RNA: B1 RNA with C25A, A26C, G27U, U28G, U30G, U31A
DNA 1: CAATCTGAATTCCGGTCTCCC
DNA 2: TGGTGGCTACGACGGGATT
B9: CUCUGUG (DNA:RNA)
RNA: B1 RNA with A26U, G27C, U31G
DNA 1: CAATCTGAATTCCGGTCTCCC
DNA 2: TGGTGGCTACGACGGGATT
B10: CUUCGGA (DNA:RNA)
RNA: B1 RNA with A26U, G27U, U28C, U30G, U31A
DNA 1: CAATCTGAATTCCGGTCTCCC
DNA 2: TGGTGGCTACGACGGGATT
B11: UGUUCUU (DNA:RNA)
RNA: B1 RNA with C25U, A26G, G27U, G29C
DNA 1: CAATCTGAATTCCGGTCTCCC
DNA 2: TGGTGGCTACGACGGGATT
B12: GGCACGU (DNA:RNA)
RNA: B1 RNA with C25G, A26G, G27C, U28A, G29C, U30G
DNA 1: CAATCTGAATTCCGGTCTCCC
DNA 2: TGGTGGCTACGACGGGATT
B13: GGUGCAA (DNA:RNA)
RNA: GGGAGACCGGAAUUCAGAUUGUCCGGUGCAAUUAAAUCCCGUCGUAGCCACCA
DNA 1: CAATCTGAATTCCGGTCTCCC
DNA 2: TGGTGGCTACGACGGGATT
B14: AAAGGCC (DNA:RNA)
RNA: B1 RNA with C25A, G27A, U28G, U30C, U31C
DNA 1: CAATCTGAATTCCGGTCTCCC
DNA 2: TGGTGGCTACGACGGGATT
B15: UUUAGGU (DNA:RNA)
RNA: B1 RNA with C25U, A26U, G27U, U28A, U30G
DNA 1: CAATCTGAATTCCGGTCTCCC
DNA 2: TGGTGGCTACGACGGGATT
B16: AUGCGCC (DNA:RNA)
RNA: B1 RNA with C25A, A26U, U28C, U30C, U31C
DNA 1: CAATCTGAATTCCGGTCTCCC
DNA 2: TGGTGGCTACGACGGGATT
B17: AAAUAUC (DNA:RNA)
RNA: B1 RNA with C25A, G27A, G29A, U31C
DNA 1: CAATCTGAATTCCGGTCTCCC
DNA 2: TGGTGGCTACGACGGGATT
B18: GGCUGGG (DNA:RNA)
RNA: B1 RNA with C25G, A26G, G27C, U30G, U31G
DNA 1: CAATCTGAATTCCGGTCTCCC
DNA 2: TGGTGGCTACGACGGGATT
B19: GUUGAUC (DNA:RNA)
RNA: B13 RNA with G26U, C29A, A30U, A31C
DNA 1: CAATCTGAATTCCGGTCTCCC
DNA 2: TGGTGGCTACGACGGGATT
B20: AUCGGCA (DNA:RNA)
RNA: B13 RNA with G25A, G26U, U27C, C29G, A30C
DNA 1: CAATCTGAATTCCGGTCTCCC
DNA 2: TGGTGGCTACGACGGGATT
B21: UCAAAAC (DNA:RNA)
RNA: B13 RNA with G25U, G26C, U27A, G28A, C29A, A31C
DNA 1: CAATCTGAATTCCGGTCTCCC
DNA 2: TGGTGGCTACGACGGGATT
B22: GAAGAUA (DNA:RNA)
RNA: B13 RNA with G26A, U27A, C29A, A30U
DNA 1: CAATCTGAATTCCGGTCTCCC
DNA 2: TGGTGGCTACGACGGGATT
B23: UGGCCGG (DNA:RNA)
RNA: B13 RNA with G25U, U27G, G28C, A30G, A31G
DNA 1: CAATCTGAATTCCGGTCTCCC
DNA 2: TGGTGGCTACGACGGGATT
B24: GCACACA (DNA:RNA)
RNA: B13 RNA with G26C, U27A, G28C, C29A, A30C
DNA 1: CAATCTGAATTCCGGTCTCCC
DNA 2: TGGTGGCTACGACGGGATT
B25: CCGACGC (DNA:RNA)
RNA: B1 RNA with A26C, U28A, G29C, U30G, U31C
DNA 1: CAATCTGAATTCCGGTCTCCC
DNA 2: TGGTGGCTACGACGGGATT
B26: CCGCGUA (DNA:RNA)
RNA: B1 RNA with A26C, U28C, U31A
DNA 1: CAATCTGAATTCCGGTCTCCC
DNA 2: TGGTGGCTACGACGGGATT
B27: CCCCGGG (DNA:RNA)
RNA: B1 RNA with A26C, G27C, U28C, U30G, U31G
DNA 1: CAATCTGAATTCCGGTCTCCC
DNA 2: TGGTGGCTACGACGGGATT
B28: AUGGCAC (DNA:RNA)
RNA: B13 RNA with G25A, G26U, U27G, A31C
DNA 1: CAATCTGAATTCCGGTCTCCC
DNA 2: TGGTGGCTACGACGGGATT
B29: UCCGACA (DNA:RNA)
RNA: B13 RNA with G25U, G26C, U27C, C29A, A30C
DNA 1: CAATCTGAATTCCGGTCTCCC
DNA 2: TGGTGGCTACGACGGGATT
B30: CUUAAAC (DNA:RNA)
RNA: B13 RNA with G25C, G26U, G28A, C29A, A31C
DNA 1: CAATCTGAATTCCGGTCTCCC
DNA 2: TGGTGGCTACGACGGGATT
B31: CCGGCUU (DNA:RNA)
RNA: B1 RNA with A26C, U28G, G29C
DNA 1: CAATCTGAATTCCGGTCTCCC
DNA 2: TGGTGGCTACGACGGGATT

Where a chain is given by its changes, count along the chain named. Some of the results follow.

In the test the target is T1, RBFOX1 RRM RbFoxmut (Fox-RRM*). Briefly: EMSA; HiTS-Eq, 1 nM pool, 10 min; buffer printed only for the single-RNA assays: 10 mM Tris pH 7.5, 150 mM NaCl, 3.4 mM EDTA, 0.001% NP-40, 30 C. The following applies: tags: His6 N-terminal (pET28a); label: 5' 32P. The method, boiled down: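 These values rest on relative association constants, computed from read-count changes of each RNA species versus the control reaction and normalised to the cognate motif. Reads came from free RNA recovered by 8% native PAGE after purified RbFox RRM (wild type or mutant) at increasing concentrations was equilibrated for 10 min in 50 µL with 1 nM of a 5′-radiolabelled pool with 7 randomized nucleotides and DNA-annealed flanks.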
(A gel shift assay detects complexes by their altered migration in electrophoresis.)
Take B1: the binding signal was 0.122 KA relative to UGCAUGU.
With B2, the binding signal was 0.0914 KA relative to UGCAUGU.
Turning to B3, the binding signal is 0.126 KA relative to UGCAUGU.
Turning to B4, the binding signal was 0.0995 KA relative to UGCAUGU.
For B5, the binding signal is 0.114 KA relative to UGCAUGU.
As for B6, the figure is 0.106 KA relative to UGCAUGU; as for B7, 0.0568 KA relative to UGCAUGU.
As to B8, the binding signal is 0.0985 KA relative to UGCAUGU.
Regarding B9, the binding signal was 0.151 KA relative to UGCAUGU.
As for B10, the figure is 0.0749 KA relative to UGCAUGU; as for B11, 0.081 KA relative to UGCAUGU; as for B12, 0.222 KA relative to UGCAUGU.
As for B13, the binding signal is 0.0819 KA relative to UGCAUGU.
As for B14, the binding signal is 0.109 KA relative to UGCAUGU.
With B15, the binding signal is 0.108 KA relative to UGCAUGU.
For the molecule B16, the binding signal is 0.191 KA relative to UGCAUGU.
Regarding B17, the binding signal is 0.0768 KA relative to UGCAUGU.
Take B18: the binding signal is 0.0753 KA relative to UGCAUGU.
As to B19, the binding signal was 0.0808 KA relative to UGCAUGU.
Consider B20, for which the binding signal was 0.157 KA relative to UGCAUGU.
Next, B21: 0.0616 KA relative to UGCAUGU.
Consider B22, for which the binding signal is 0.119 KA relative to UGCAUGU.
In the case of B23, the binding signal was 0.0899 KA relative to UGCAUGU.
Regarding B24, the binding signal is 0.133 KA relative to UGCAUGU.
Next, B25: 0.0578 KA relative to UGCAUGU; B26: 0.12 KA relative to UGCAUGU; B27: 0.0656 KA relative to UGCAUGU.
On to B28, for which the binding signal is 0.132 KA relative to UGCAUGU.
B29: the binding signal was 0.0756 KA relative to UGCAUGU.
For the molecule B30, the binding signal was 0.0994 KA relative to UGCAUGU.
For B31, the binding signal is 0.0778 KA relative to UGCAUGU.
